# Data as given in PubChem BioAssay AID2101 (National Center for Advancing Translational Sciences (NCATS), 2009).
# About 300 (0.091%) of roughly 330,000 compounds were called active. The shares of active, inactive and inconclusive entries below differ from those in the screen. Calls follow the shape of the dose curve; as a rule, active = well fitted inhibition curve with a large enough effect; inconclusive = small, poorly fitted or top-dose-only effect, or effect the other way, or another doubt; inactive = no such curve, though single readings can be large or run the other way. Potencies of inconclusive entries are left out as doubtful fits.
# Biological target: Lysosomal acid glucosylceramidase (Homo sapiens) (UniProt P04062)
# Experiment: qHTS Assay for Inhibitors and Activators of N370S glucocerebrosidase as a Potential Chaperone Treatment of Gaucher Disease;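 as to activity change, negative = inhibition: 0% = full enzyme activity and -100% = no enzyme basal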
# Conditions: N370S GC spleen homogenate, 4MU-glucoside fluorescence; activity change, negative = inhibition: at 59.4 µM (top of the series) unless noted
# Potency is read from the fitted curve at half-maximal effect.
Compound,Potency,"activity change, negative = inhibition"
O=C(COc1ccccc1[N+](=O)[O-])Nc1ccc(N2CCN(C(=O)c3cccs3)CC2)cc1,"inconclusive [activator, single point]",–
Clc1ccc(OCc2nnc(SCc3nnc(-c4ccccc4)o3)o2)c(Cl)c1,–,inconclusive: 29.7% [activator]
Cc1ccc2c(COn3nnc4ccc(S(=O)(=O)N(C)C)cc43)cc(=O)oc2c1C,"inconclusive [activator, partial curve]",–
CCSc1ccc(/C(N)=N/OC(=O)c2cccs2)cn1,inactive,–
Cc1cccc(S(=O)(=O)Nc2ccc(-c3nc4ccc(C)cc4s3)cc2)c1,"inconclusive [activator, partial curve]",–
Cc1ccc(NC(=O)CSc2nnc(-c3cccs3)n2Cc2ccco2)cc1,"inconclusive [activator, single point]",–
COc1ccc(Cl)c(NC(=O)NCCN2CCN(c3ccccc3)CC2)c1,"inconclusive [inhibitor, single point]",–
CC1CCCN(Cc2c(O)ccc3c4c(c(=O)oc23)CCCC4)C1 (stereo not given),"inconclusive [activator, partial curve]",–
Cc1ccc(OCCC(=O)N2CCN(c3ccc(O)cc3)CC2)cc1,inactive,–
COC(=O)C1=CN(Cc2cccs2)C=C(C(=O)OC)C1c1cccc(Cl)c1,"inconclusive [activator, single point]",–
O=S(=O)(O)c1ccc(N2N=C(c3ccccc3)CC2c2ccccc2)cc1 (stereo not given),"inconclusive [activator, partial curve]",–
N#Cc1ccccc1CSc1nc(N2CCCCC2)nc(N2CCCCC2)n1,"inconclusive [activator, partial curve]",–
COc1ccc(NC(=O)Nc2cccc(C)n2)c(OC)c1,"inconclusive [activator, partial curve]",–
CCN1CCN(C(=O)c2ccccc2N(Cc2ccccc2)S(=O)(=O)c2ccc(C)cc2)CC1,"inconclusive [inhibitor, partial curve]",–
O=c1cc(N2CCCCC2)c(-c2ccccc2)nn1Cc1ccc(Cl)cc1Cl,"inconclusive [activator, full curve]",–
Cc1ccc2nc3c(cc(C(=O)NCC4CCCO4)c(=N)n3CC3CCCO3)c(=O)n2c1 (stereo not given),"inconclusive [activator, partial curve]",–
Cc1cc2ncc(-c3cccs3)nc2cc1C,"inconclusive [activator, partial curve]",–
COc1ccc(NS(=O)(=O)c2ccc3ccccc3c2)c2ncccc12,"inconclusive [activator, partial curve]",–
CCCCC(CC)CNC(=O)c1cc2ccccc2c(=O)o1 (stereo not given),"inconclusive [activator, single point]",–
CCOc1cccc(CNCCO)c1OCc1ccc(Cl)cc1Cl,inactive,–
O=C(Nc1cccc(C(F)(F)F)c1)c1ccc(N2CCNCC2)c([N+](=O)[O-])c1,"inconclusive [inhibitor, single point]",–
COC(=O)c1ccc(COc2ccc(/C=N/O)cc2OC)o1,–,inconclusive: 32.3% [activator]

Compound,Potency,"activity change, negative = inhibition"
CCOC(=O)c1sc2ncn(/N=C/c3ccc(O)c(OC)c3)c(=O)c2c1C,"inconclusive [inhibitor, partial curve, poor fit]",–
Cc1c(C(=O)O)c(-c2ccccc2)nn1-c1ccccc1,inactive,–
COc1ccc(N2CCN(c3nc4c(C)cccn4c(=O)c3/C=C(\C#N)C(N)=O)CC2)cc1,"inconclusive [activator, partial curve]",–
COc1cccc(-c2cc(C(F)(F)F)c(C#N)c(=O)[nH]2)c1,"inconclusive [activator, partial curve]",–
O=c1[nH]c2ccccc2nc1Cc1ccc(Cl)cc1,"inconclusive [activator, single point]",–
COc1ccc(OC)c(-c2csc(NC(=O)Cc3ccccc3F)n2)c1,"inconclusive [activator, single point]",–
Cc1ccc(-c2cc(C(=O)N3CCCC(C(F)(F)F)C3)c3ccccc3n2)o1 (stereo not given),"inconclusive [activator, partial curve]",–
CCCCOc1ccc(Cc2c(COCC)[nH]c(=S)[nH]c2=O)cc1,"inconclusive [inhibitor, single point]",–
CCc1ccc(NC(=O)COc2cccc(-n3cnnn3)c2)cc1,"inconclusive [activator, partial curve]",–
CCOc1ccc(N2C(=O)CC(N3CCc4ccccc43)C2=O)cc1 (stereo not given),–,inactive: 10.7% [at 12.8 µM]
Cc1cc(C)c2nc(Nc3nc(-c4ccccc4)cc(=O)[nH]3)nc(C)c2c1,"inconclusive [activator, partial curve, poor fit]",–
O=C(CSc1ccccn1)Nc1ccc2c(c1)oc1ccccc12,"inconclusive [activator, partial curve]",–
CCN(CC)S(=O)(=O)c1cc(NS(=O)(=O)c2cccc(Cl)c2Cl)ccc1C,"inconclusive [activator, partial curve]",–
COc1ccc(Cc2nc(C(=O)Nc3ccccc3)cs2)cc1,"inconclusive [activator, partial curve]",–
CCOc1ccc(NC(=O)C(C)Oc2ccccc2C(=O)Nc2ccc(C)c(Cl)c2)cc1 (stereo not given),"inconclusive [activator, partial curve]",–
CCOc1ccc(N(CC)S(=O)(=O)c2c(C)[nH]c(=O)[nH]c2=O)cc1,inactive,–
N#Cc1ccc(CS(=O)(=O)c2nc3ccccc3s2)cc1,inactive,–
COc1ccccc1C1=NC(c2ccccc2)CN1c1ccccc1 (stereo not given),"inconclusive [activator, single point]",–
CS(=O)(=O)N(CC(=O)N1CCC(C(N)=O)CC1)Cc1ccc(Cl)c(Cl)c1,"inconclusive [inhibitor, full curve, poor fit]",–
O=C(COc1c(Br)cc(Br)c2cccnc12)N1CCc2ccccc2C1,"inconclusive [activator, single point]",–
O=[N+]([O-])c1ccc(C2CCCC/C2=N/OCc2ccccc2F)c([N+](=O)[O-])c1 (stereo not given),"inconclusive [inhibitor, single point]",–
COc1ncc2nc(-c3cccs3)c(=O)n(-c3ccccc3)c2n1,"inconclusive [activator, partial curve, poor fit]",–

Compound,Potency,"activity change, negative = inhibition"
COc1cc(C2Oc3cc(C4Oc5cc(O)cc(O)c5C(=O)C4O)ccc3OC2CO)ccc1O (stereo not given),"inconclusive [inhibitor, partial curve]",–
NC(=O)NC(Cc1ccccc1)C(=O)NCC1(N2CCCCC2)CCCCC1 (stereo not given),"inconclusive [inhibitor, full curve, poor fit]",–
O=C(c1ccc(F)cc1)C1CCN(Cc2ccc(F)cc2)CC1,inactive,–
Nc1ncnc2c1ncn2[C@@H]1O[C@H](C(=O)NC2CC2)[C@@H](O)[C@H]1O,inactive,–
COc1ccc(CNc2ccnc(-c3ccccc3Cl)n2)c(OC)c1,active: 4.47 µM,–
CCOC(=O)c1cnc(-n2nc(C)cc2C)nc1NNc1cc(C)nc(-c2ccccc2)n1,"inconclusive [inhibitor, partial curve]",–
CC(C)CNC(=O)COc1ccc2c3c(c(=O)oc2c1)CCC3,"inconclusive [inhibitor, single point]",–
N#Cc1nc(Cc2cccc3ccccc23)oc1NCCCN1CCOCC1,"inconclusive [inhibitor, full curve, poor fit]",–
COc1ccc(C2NC(C(=O)O)Cc3c2[nH]c2ccccc32)cc1CN1CCN(c2ccc(F)cc2)CC1 (stereo not given),"inconclusive [inhibitor, partial curve, poor fit]",–
CCCn1cnc2cc(NCc3cccc(OC)c3O)ccc21,inactive,–
CC(C)c1ccc(C(O)P(=O)(OC2CCCCC2)OC2CCCCC2)cc1 (stereo not given),inactive,–
CN1CCN(C(=S)c2cn(Cc3ccccc3F)c3ccccc23)CC1,"inconclusive [inhibitor, partial curve, poor fit]",–
O=C(NC(=S)Nc1ccccc1N1CCOCC1)c1cccs1,–,inconclusive: 3.92% [activator]
Cc1ccc(NC(=O)c2ccccc2N(C)S(=O)(=O)c2ccccc2)c(C)c1,"inconclusive [inhibitor, full curve, poor fit]",–
COc1cc(C(=O)N2C[C@@H]3CCC[C@H]2C3)ccc1OC1CCN(C(C)=O)CC1,"inconclusive [inhibitor, full curve, poor fit]",–
Cc1nn(-c2ccccc2)c(Cl)c1C(=O)Nc1nnc(C2CCCC2)s1,"inconclusive [activator, partial curve]",–
CCC(NC(=O)COc1cc2c(c3oc(=O)c(C)c(C)c13)CCC(C)(C)O2)C(=O)O (stereo not given),"inconclusive [activator, single point]",–
COc1cc(/C=N\NC(=O)c2c(C)nc3cc(C)ccn23)ccc1O,"inconclusive [inhibitor, full curve]",–
O=C(NCc1cccnc1)Nc1ccc2c(c1)OCO2,inactive,–
O=C(O)c1ccc(Nc2nc(-c3ccccc3)nc3ccccc23)cc1,"inconclusive [inhibitor, partial curve]",–
COC(=O)C1=C(CSc2nc3c(cc2C#N)CN(C)CC3)OC(N)=C(C#N)C1c1ccccc1F (stereo not given),"inconclusive [inhibitor, partial curve]",–
